# Data reported in ChEMBL document CHEMBL4888484, “Replenishing the malaria drug discovery pipeline: Screening and hit evaluation of the MMV Hit Generation Library 1 (HGL1) against asexual blood stage Plasmodium falciparum ,using a nano luciferase reporter read-out” (2022).
# Out of some 150,000 compounds screened, about 540 (0.36%) showed an effect of 50% or more. Some of the results follow.
# Test system: Plasmodium falciparum
# Assay: Primary screen in NF54 nanoGlo assay, in single point, at 2uM, 72h; a lower Z score goes with more inhibition
# Type: functional, Erythrocyte
# Conditions: timepoint 72 hour
SMILES,% Inhibition [%],Z score
CCN(Cc1ccccc1OC(F)F)S(C)(=O)=O,-4,0.45
O=C(CN1CC2CCCCC21c1ccccc1)NC(=O)NCC(F)(F)F (configuration not stated),-2,0.35
O=C(CCn1cnc2cc(S(=O)(=O)N3CCCC3)ccc21)N1CCOCC1,-18,1.81
Cc1sc(-c2nnc(C(=O)N3CCCC3)o2)cc1S(=O)(=O)NC1CCCCCCC1,-13,1.81
O=C(c1ccc2c(c1)OCCO2)N1CCN(Cc2ccncc2)CC1,-1,0.27
Cc1csc(CCNC(=O)c2ccco2)n1,-14,1.86
CN(C[C@@H]1C[C@@H](O)CN1)c1ccnc(C(N)=O)c1,-14,1.41
O=C([C@@H]1CCCCn2nnnc21)N1CCC(Oc2cccc(F)c2)CC1,-20,2.09
COc1ccc(-c2noc(NCCN3CCN(c4cccc(Cl)c4)CC3)n2)cc1,9,-1.2
CC1(C)CN(C(=O)c2cccc(CN3CCS(=O)(=O)CC3)c2)c2ccccc21,-1,0.15
COc1nc(C)ccc1OCc1nnc(C)s1,5,-0.61
CCCS(=O)(=O)NC[C@H](C)N1CCn2nc(CNC(C)=O)cc2C1,1,-0.15
CCNC(=O)CNC(=O)Nc1cnn(C(C)C)c1,35,-0.6
CCOC(=O)[C@H]1CC[C@@H](C)N(Cc2nonc2C)[C@H]1C,-1,0.15
Cc1nsc(C(=O)NC(C)(C)c2cn(C)nn2)c1N,6,-0.93
O=C(N[C@H]1C[C@H]2OCC[C@@H]12)C(=O)c1ccccc1,-7,1.21
O=C(c1cccnn1)N1CCN(CCc2ccc(Cl)c(Cl)c2)CC1,-6,0.66
CC(C)(C)c1nnc(NCc2cccnc2)nc1O,5,-0.8
CC1CC(C(=O)NC(COc2ccccc2F)C(C)(C)C)CCC1=O (configuration not stated),-13,1.36

SMILES,% Inhibition [%],Z score
CN(Cc1cc2cc(F)ccc2[nH]1)C(=O)N[C@H]1CCS(=O)(=O)C1,-8,1.51
O=C(NCCNc1cnccn1)c1cccs1,1,-0.17
Cn1cc(C(=O)N2CCC[C@H](C(=O)Cc3ccccc3)C2)c2ccccc21,-1,0.12
O=C(NC1CCN(Cc2ccccc2)CC1)c1ccc2c(c1)N(CC(=O)N1CCCC1)C(=O)CO2,9,-1.17
OCc1ccc(Cl)c(NCc2cnc(-c3ccccn3)s2)c1,8,-0.99
CCc1nc(Cn2ccnc2-c2cccc3nonc23)no1,5,-0.84
N#CCCN(CCC#N)C(=O)C1CC1c1ccc(F)cc1F (configuration not stated),-14,1.78
COc1cc2c(OC)c3ccoc3nc2cc1O,-12,2.38
COc1ccc(OC)c(NC(=O)Cn2cc(-c3nc(C)no3)ccc2=O)c1,-11,1.96
CCn1c(C(=O)NC2CC2)cc2cc(S(=O)(=O)N(C)C)ccc21,-8,1.37
CC[C@@](C)(CO)NC(=O)C1=CCCCO1,-4,0.57
CCOCCC(=O)N[C@H]1CCC(=O)N(C)C1,-10,1.46
Cc1noc(C)c1-c1nc2cc3c(cc2[nH]1)OCCCO3,-8,1.07
COc1ccc([C@H]2OCC[C@@H]2NC(=O)c2c(F)cccc2F)cn1,-6,0.98
O=C1CCC(C(=O)NC(c2ccc(Cl)cc2)C2CCCC2)N1 (configuration not stated),-5,1.03
Cc1ccc(NCC(=O)n2c(C)c(C)c3ccccc32)c(C)c1,6,-1.22
Cc1ccc(S(=O)(=O)Nc2nc(C)cc(=O)[nH]2)cc1,-15,1.95
CCn1cc(-c2nc(C)c(C(=O)NCc3cc(F)cc(F)c3)s2)c2cccnc21,-4,0.67
C[C@H](NCCN1CCCC1=O)c1ccc(S(C)(=O)=O)c(F)c1,-10,1.1

SMILES,% Inhibition [%],Z score
Cc1cc(OCc2nc(CC(=O)N[C@@H](C)c3ccccc3)cs2)ccc1Cl,-2,0.35
COC[C@@H]1CCC[C@@H]1NC(=O)Cc1cccnc1,-7,1.13
Cc1ccc(S(=O)(=O)N2CCC[C@H]2c2ncc[nH]2)c(Cl)c1,-8,1.06
CCc1ncc(-c2nc(-c3ccncc3)no2)cn1,-14,1.69
Cc1ccc(-n2nc3c(N4CCC[C@H](C(=O)NCCN5CCOCC5)C4)nnc(C)c3c2C)cc1,0,0.05
COC(=O)[C@H]1CCc2cnn(Cc3nnc(-c4cccc(OC)c4)o3)c2C1,-16,2.5
CC(C)(C)n1ncc2c(-n3cnc(C(N)=O)c3)ncnc21,-1,0.13
CCn1nccc1-c1cccc(-c2noc(-c3ccccn3)n2)c1,10,-1.17
CCN(C(=O)OC(C)(C)C)c1ccncc1,0,0.02
Cc1ccc(C(C)NC(C)C(=O)NC(=O)NCC(F)(F)F)o1 (configuration not stated),-16,2.02
CC(C)CCc1noc(CN2C(=O)c3ccccc3C2=O)n1,-4,0.56
CC(NC(=O)NC1CCCCC1CO)C(C)(C)CN(C)C (configuration not stated),-10,1.24
CN(CCn1cnc2ccccc2c1=O)Cc1ccccc1Br,-20,2.01
COC(=O)[C@@H](C)CNC(=O)Nc1cc(F)c(F)cc1Cl,21,-2.42
CCCCNC(=O)N1CC(CO)CC1CO (configuration not stated),3,-0.73
COC(=O)c1ccc(N2CCC(F)(c3cccc(OC)c3)CC2)nn1,-4,0.64
Cc1ccoc1C(=O)NC1CCN(CC(=O)Nc2ccncc2)CC1,2,-0.25
Cc1ccccc1C(=O)NC[C@@H](c1ccc(N(C)C)cc1)N1CCOCC1,10,-1.02
